Some of the results follow. Binding of human transcription factors and regulators to the viral nucleoprotein by AlphaScreen, crude cell-free proteins, amounts not normalised, one pass. Fold of the Venus control; higher = more signal. No active / inactive call. Single-pass screen; sequences are the whole Swiss-Prot entries looked up by name.

To fix the notation:
B1: NR1I2, O75469 (protein)
chain: MEVRPKESWNHADFVHCEDTESVPGKPSVNADEEVGGPQICRVCGDKATGYHFNVMTCEGCKGFFRRAMKRNARLRCPFRKGACEITRKTRRQCQACRLRKCLESGMKKEMIMSDEAVEERRALIKRKKSERTGTQPLGVQGLTEEQRMMIRELMDAQMKTFDTTFSHFKNFRLPGVLSSGCELPESLQAPSREEAAKWSQVRKDLCSLKVSLQLRGEDGSVWNYKPPADSGGKEIFSLLPHMADMSTYMFKGIISFAKVISYFRDLPIEDQISLLKGAAFELCQLRFNTVFNAETGTWECGRLSYCLEDTAGGFQQLLLEPMLKFHYMLKKLQLHEEEYVLMQAISLFSPDRPGVLQHRVVDQLQEQFAITLKSYIECNRPQPAHRFLFLKIMAMLTELRSINAQHTQRLLRIQDIHPFATPLMQELFGITGS
B2: TP53BP1, Q12888 (protein)
chain: MDPTGSQLDSDFSQQDTPCLIIEDSQPESQVLEDDSGSHFSMLSRHLPNLQTHKENPVLDVVSNPEQTAGEERGDGNSGFNEHLKENKVADPVDSSNLDTCGSISQVIEQLPQPNRTSSVLGMSVESAPAVEEEKGEELEQKEKEKEEDTSGNTTHSLGAEDTASSQLGFGVLELSQSQDVEENTVPYEVDKEQLQSVTTNSGYTRLSDVDANTAIKHEEQSNEDIPIAEQSSKDIPVTAQPSKDVHVVKEQNPPPARSEDMPFSPKASVAAMEAKEQLSAQELMESGLQIQKSPEPEVLSTQEDLFDQSNKTVSSDGCSTPSREEGGCSLASTPATTLHLLQLSGQRSLVQDSLSTNSSDLVAPSPDAFRSTPFIVPSSPTEQEGRQDKPMDTSVLSEEGGEPFQKKLQSGEPVELENPPLLPESTVSPQASTPISQSTPVFPPGSLPIPSQPQFSHDIFIPSPSLEEQSNDGKKDGDMHSSSLTVECSKTSEIEPKNSPEDLGLSLTGDSCKLMLSTSEYSQSPKMESLSSHRIDEDGENTQIEDTEPMSPVLNSKFVPAENDSILMNPAQDGEVQLSQNDDKTKGDDTDTRDDISILATGCKGREETVAEDVCIDLTCDSGSQAVPSPATRSEALSSVLDQEEAMEIKEHHPEEGSSGSEVEEIPETPCESQGEELKEENMESVPLHLSLTETQSQGLCLQKEMPKKECSEAMEVETSVISIDSPQKLAILDQELEHKEQEAWEEATSEDSSVVIVDVKEPSPRVDVSCEPLEGVEKCSDSQSWEDIAPEIEPCAENRLDTKEEKSVEYEGDLKSGTAETEPVEQDSSQPSLPLVRADDPLRLDQELQQPQTQEKTSNSLTEDSKMANAKQLSSDAEAQKLGKPSAHASQSFCESSSETPFHFTLPKEGDIIPPLTGATPPLIGHLKLEPKRHSTPIGISNYPESTIATSDVMSESMVETHDPILGSGKGDSGAAPDVDDKLCLRMKLVSPETEASEESLQFNLEKPATGERKNGSTAVAESVASPQKTMSVLSCICEARQENEARSEDPPTTPIRGNLLHFPSSQGEEEKEKLEGDHTIRQSQQPMKPISPVKDPVSPASQKMVIQGPSSPQGEAMVTDVLEDQKEGRSTNKENPSKALIERPSQNNIGIQTMECSLRVPETVSAATQTIKNVCEQGTSTVDQNFGKQDATVQTERGSGEKPVSAPGDDTESLHSQGEEEFDMPQPPHGHVLHRHMRTIREVRTLVTRVITDVYYVDGTEVERKVTEETEEPIVECQECETEVSPSQTGGSSGDLGDISSFSSKASSLHRTSSGTSLSAMHSSGSSGKGAGPLRGKTSGTEPADFALPSSRGGPGKLSPRKGVSQTGTPVCEEDGDAGLGIRQGGKAPVTPRGRGRRGRPPSRTTGTRETAVPGPLGIEDISPNLSPDDKSFSRVVPRVPDSTRRTDVGAGALRRSDSPEIPFQAAAGPSDGLDASSPGNSFVGLRVVAKWSSNGYFYSGKITRDVGAGKYKLLFDDGYECDVLGKDILLCDPIPLDTEVTALSEDEYFSAGVVKGHRKESGELYYSIEKEGQRKWYKRMAVILSLEQGNRLREQYGLGPYEAVTPLTKAADISLDNLVEGKRKRRSNVSSPATPTASSSSSTTPTRKITESPRASMGVLSGKRKLITSEEERSPAKRGRKSATVKPGAVGAGEFVSPCESGDNTGEPSALEEQRGPLPLNKTLFLGYAFLLTMATTSDKLASRSKLPDGPTGSSEEEEEFLEIPPFNKQYTESQLRAGAGYILEDFNEAQCNTAYQCLLIADQHCRTRKYFLCLASGIPCVSHVWVHDSCHANQLQNYRNYLLPAGYSLEEQRILDWQPRENPFQNLKVLLVSDQQQNFLELWSEILMTGGAASVKQHHSSAHNKDIALGVFDVVVTDPSCPASVLKCAEALQLPVVSQEWVIQCLIVGERIGFKQHPKYKHDYVSH
B3: ATOH1, Q92858 (protein)
chain: MSRLLHAEEWAEVKELGDHHRQPQPHHLPQPPPPPQPPATLQAREHPVYPPELSLLDSTDPRAWLAPTLQGICTARAAQYLLHSPELGASEAAAPRDEVDGRGELVRRSSGGASSSKSPGPVKVREQLCKLKGGVVVDELGCSRQRAPSSKQVNGVQKQRRLAANARERRRMHGLNHAFDQLRNVIPSFNNDKKLSKYETLQMAQIYINALSELLQTPSGGEQPPPPPASCKSDHHHLRTAASYEGGAGNATAAGAQQASGGSQRPTPPGSCRTRFSAPASAGGYSVQLDALHFSTFEDSALTAMMAQKNLSPSLPGSILQPVQEENSKTSPRSHRSDGEFSPHSHYSDSDEAS
B4: GTF2H4, Q92759 (protein)
chain: MESTPSRGLNRVHLQCRNLQEFLGGLSPGVLDRLYGHPATCLAVFRELPSLAKNWVMRMLFLEQPLPQAAVALWVKKEFSKAQEESTGLLSGLRIWHTQLLPGGLQGLILNPIFRQNLRIALLGGGKAWSDDTSQLGPDKHARDVPSLDKYAEERWEVVLHFMVGSPSAAVSQDLAQLLSQAGLMKSTEPGEPPCITSAGFQFLLLDTPAQLWYFMLQYLQTAQSRGMDLVEILSFLFQLSFSTLGKDYSVEGMSDSLLNFLQHLREFGLVFQRKRKSRRYYPTRLAINLSSGVSGAGGTVHQPGFIVVETNYRLYAYTESELQIALIALFSEMLYRFPNMVVAQVTRESVQQAIASGITAQQIIHFLRTRAHPVMLKQTPVLPPTITDQIRLWELERDRLRFTEGVLYNQFLSQVDFELLLAHARELGVLVFENSAKRLMVVTPAGHSDVKRFWKRQKHSS

For the assay, the target named is nucleoprotein N of Crimean-Congo hemorrhagic fever virus. The assay can be described thus: AlphaScreen luminescence signal relative to Venus negative control (fold); higher = stronger binding to CCHFV N. As for the experimental part:
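AlphaScreen binding of cell-free made, FLAG-GST-tagged human transcription factors and regulators (crude translation products) to biotinylated N protein; signal as fold of the FLAG-GST-Venus control. One pass.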
For the molecule B1, the AlphaScreen luminescence signal was found to be 2.33. On to B2, for which the AlphaScreen luminescence signal turned out to be 1.81. As for B3, the figure is 2.14; as for B4, 2.6.

The record behind these values is the supplement of paper PMC12423691.
